# In the supplement of paper PMC4967469:
# Assays:
# Assay in all cases: Viability of human cancer cell lines after 72 h of drug (GDSC screen)
# LFM-A13 = compound: C/C(O)=C(\C#N)C(=O)Nc1cc(Br)ccc1Br [LFM-A13]; settings: top dose 16 µM; top dose inferred
# Description: (§1)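 Human cancer cell lines in 384-well plates, medium with 10% serum, drug for 72 h over a 256-fold dose range (nine 2-fold or five 4-fold steps up to the top dose). Adherent lines were fixed and stained with the nucleic acid dye Syto60, suspension lines read with resazurin; signal relative to control wells, capped at 0 and 100%. One two-parameter sigmoid per drug and line, fitted in a mixed model over all curves with the slope shared within a line.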
# MP470 = compound: S=C(NCc1ccc2c(c1)OCO2)N1CCN(c2ncnc3c2oc2ccccc23)CC1 [MP470]; settings: top dose 20 µM; top dose inferred
# Description: as §1
# Bicalutamide = compound: CC(O)(CS(=O)(=O)c1ccc(F)cc1)C(=O)Nc1ccc(C#N)c(C(F)(F)F)c1 [Bicalutamide]; settings: top dose inferred
# Description: as §1
# KIN001-270 = compound: Cc1ccc(Nc2cc(-c3cccc(N4C(=O)c5ccccc5C4=O)c3)ncn2)cc1NS(C)(=O)=O [KIN001-270]; settings: top dose 20 µM; top dose inferred
# Description: as §1
# Gemcitabine = compound: Nc1ccn([C@@H]2O[C@H](CO)[C@@H](O)C2(F)F)c(=O)n1 [Gemcitabine]; settings: top dose 1.024 µM
# Description: as §1
# AUY922 = compound: CCNC(=O)c1noc(-c2cc(C(C)C)c(O)cc2O)c1-c1ccc(CN2CCOCC2)cc1 [AUY922]; settings: top dose 0.256 µM; top dose inferred
# Description: as §1
# TW-37 = compound: CC(C)c1ccccc1Cc1cc(C(=O)Nc2ccc(S(=O)(=O)c3ccccc3C(C)(C)C)cc2)c(O)c(O)c1O [TW-37]; settings: top dose 5 µM
# Description: as §1
# T0901317 = compound: O=S(=O)(c1ccccc1)N(CC(F)(F)F)c1ccc(C(O)(C(F)(F)F)C(F)(F)F)cc1 [T0901317]; settings: top dose 10.24 µM; top dose inferred
# Description: as §1
# [1] = top dose 1.024 µM, screen: GDSC drug entry 150
# [2] = top dose 10 µM, screen: GDSC drug entry 1502
Cell Line,AUC (LFM-A13),pIC50 (LFM-A13),AUC (MP470),pIC50 (MP470),AUC (Bicalutamide; [1]),pIC50 (Bicalutamide; [1]),AUC (Bicalutamide; [2]),pIC50 (Bicalutamide; [2]),AUC (KIN001-270),pIC50 (KIN001-270),AUC (Gemcitabine),pIC50 (Gemcitabine),AUC (AUY922),pIC50 (AUY922),AUC (TW-37),pIC50 (TW-37),AUC (T0901317),pIC50 (T0901317)
"A375 (melanoma, adherent)",0.969,< 4.80,0.991,< 4.70,0.991,< 5.99,0.986,< 5.00,0.991,< 4.70,0.039,> 8.40,0.456,7.91,0.344,6.90,0.991,< 4.99
"NCI-H520 (lung squamous cell carcinoma, adherent)",0.977,< 4.80,0.914,< 4.70,0.987,< 5.99,0.985,< 5.00,0.888,< 4.70,0.329,7.68,0.596,7.53,0.602,6.22,0.983,< 4.99
"BPH-1 (prostate, adherent)",0.975,< 4.80,0.802,4.96,0.982,< 5.99,0.948,< 5.00,0.975,< 4.70,0.233,8.01,0.452,7.93,0.519,6.45,0.979,< 4.99
"UMC-11 (lung carcinoid, adherent)",0.972,< 4.80,0.826,4.98,0.991,< 5.99,0.98,< 5.00,0.967,< 4.70,0.956,< 5.99,0.958,< 6.59,0.746,5.84,0.986,< 4.99
"CAL-12T (non-small cell lung carcinoma, adherent)",0.948,< 4.80,0.821,4.87,0.982,< 5.99,0.974,< 5.00,0.965,< 4.70,0.23,8.03,0.414,8.05,0.703,5.90,0.927,< 4.99
"NCI-H1792 (lung adenocarcinoma, adherent)",0.975,< 4.80,0.971,< 4.70,0.99,< 5.99,0.989,< 5.00,0.989,< 4.70,0.569,7.01,0.627,7.46,0.64,6.14,0.967,< 4.99
"A204 (rhabdomyosarcoma, adherent)",0.922,< 4.80,0.92,< 4.70,0.971,< 5.99,0.958,< 5.00,0.972,< 4.70,0.296,7.84,0.464,7.91,0.685,5.92,0.971,< 4.99
"RT-112 (bladder, adherent)",0.945,< 4.80,0.971,< 4.70,0.985,< 5.99,0.983,< 5.00,0.954,< 4.70,0.144,8.35,0.346,8.24,0.589,6.25,0.969,< 4.99
"OAW-28 (ovary, adherent)",0.953,< 4.80,0.924,< 4.70,0.982,< 5.99,0.951,< 5.00,0.977,< 4.70,0.487,7.24,0.854,< 6.59,0.522,6.44,0.977,< 4.99
"COLO-792 (melanoma, adherent)",0.935,< 4.80,0.277,6.53,0.986,< 5.99,0.986,< 5.00,0.988,< 4.70,0.977,< 5.99,0.741,7.11,0.499,6.51,0.985,< 4.99
"A172 (glioma, adherent)",0.881,4.80,0.93,< 4.70,0.989,< 5.99,0.987,< 5.00,0.976,< 4.70,0.347,7.61,0.649,7.39,0.669,6.04,0.981,< 4.99
"HT55 (large intestine, adherent)",0.978,< 4.80,0.691,5.37,0.986,< 5.99,–,–,0.99,< 4.70,0.965,< 5.99,0.942,< 6.59,0.601,6.23,0.988,< 4.99
"MFE-319 (endometrium, adherent)",0.979,< 4.80,0.885,< 4.70,0.985,< 5.99,0.987,< 5.00,0.978,< 4.70,0.565,7.02,0.567,7.61,0.614,6.20,0.967,< 4.99
"SK-LU-1 (lung adenocarcinoma, adherent)",0.904,< 4.80,0.971,< 4.70,0.98,< 5.99,0.938,< 5.00,0.955,< 4.70,0.097,> 8.40,0.463,7.91,0.607,6.18,0.98,< 4.99
"BFTC-909 (kidney, adherent)",0.962,< 4.80,0.962,< 4.70,0.988,< 5.99,0.943,< 5.00,0.968,< 4.70,0.397,7.47,0.584,7.57,0.417,6.73,0.98,< 4.99
"EFM-192A (breast, adherent)",0.921,< 4.80,0.95,< 4.70,0.986,< 5.99,0.976,< 5.00,0.976,< 4.70,0.153,8.33,0.493,7.82,0.75,5.75,0.986,< 4.99
"BEN (non-small cell lung carcinoma, adherent)",0.972,< 4.80,0.849,4.74,0.986,< 5.99,0.984,< 5.00,0.975,< 4.70,0.61,6.87,0.761,6.99,0.474,6.58,0.964,< 4.99
"NCI-H1944 (lung adenocarcinoma, adherent)",0.972,< 4.80,0.863,4.72,0.985,< 5.99,0.984,< 5.00,0.969,< 4.70,0.217,8.05,0.544,7.67,0.311,7.05,0.916,< 4.99
"IM-95 (stomach, adherent)",0.977,< 4.80,0.937,< 4.70,0.979,< 5.99,–,–,0.956,< 4.70,0.317,7.72,0.634,7.41,0.628,6.14,0.925,< 4.99
"LCLC-103H (large cell lung carcinoma, adherent)",0.95,< 4.80,0.617,5.60,0.99,< 5.99,0.99,< 5.00,0.973,< 4.70,0.272,7.81,0.462,7.90,0.451,6.63,0.99,< 4.99
"NCI-H1563 (lung adenocarcinoma, adherent)",0.982,< 4.80,0.958,< 4.70,0.985,< 5.99,–,–,0.979,< 4.70,0.967,< 5.99,0.981,< 6.59,0.373,6.88,0.98,< 4.99
"SNU-423 (liver, adherent)",0.969,< 4.80,0.917,< 4.70,0.983,< 5.99,0.956,< 5.00,0.911,< 4.70,0.463,7.30,0.434,7.99,0.53,6.42,0.95,< 4.99
"786-0 (kidney, adherent)",0.941,< 4.80,0.949,< 4.70,0.988,< 5.99,0.986,< 5.00,0.968,< 4.70,0.027,> 8.40,0.291,8.36,0.828,5.56,0.974,< 4.99
"CAL-54 (kidney, adherent)",0.839,4.88,0.985,< 4.70,0.984,< 5.99,0.982,< 5.00,0.969,< 4.70,0.729,6.49,0.936,< 6.59,0.403,6.79,0.984,< 4.99
"SW1088 (glioma, adherent)",0.946,< 4.80,0.974,< 4.70,0.968,< 5.99,0.935,< 5.00,0.972,< 4.70,0.79,6.21,0.686,7.21,0.583,6.25,0.981,< 4.99
"U031 (kidney, adherent)",0.961,< 4.80,0.951,< 4.70,0.985,< 5.99,0.979,< 5.00,0.982,< 4.70,0.195,8.12,0.685,7.27,0.39,6.81,0.974,< 4.99
"PCI-38 (head and neck, adherent)",0.932,< 4.80,0.955,< 4.70,0.987,< 5.99,0.97,< 5.00,0.977,< 4.70,0.801,6.30,0.613,7.48,0.474,6.58,0.979,< 4.99
"Hs-578-T (breast, adherent)",0.986,< 4.80,0.984,< 4.70,0.987,< 5.99,0.97,< 5.00,0.984,< 4.70,0.984,< 5.99,0.986,< 6.59,0.323,7.01,0.987,< 4.99
"A673 (rhabdomyosarcoma, adherent)",0.974,< 4.80,0.962,< 4.70,0.988,< 5.99,0.986,< 5.00,0.985,< 4.70,0.342,7.61,0.615,7.50,0.379,6.82,0.97,< 4.99
"NCI-H3122 (lung adenocarcinoma, adherent)",0.952,< 4.80,0.639,5.51,0.987,< 5.99,0.983,< 5.00,0.978,< 4.70,0.139,8.35,0.314,8.32,0.604,6.22,0.984,< 4.99

# pIC50: −log10 of the molar value. IC50 is the fitted dose that halves viability relative to control wells, and lower means more sensitive; a limit (>, <) means that the fit lies beyond the doses tested. AUC, from the same fit, is the share of area under the viability curve across the 256-fold dose range: 1 means no effect, lower means more sensitive. For part of these data: An inferred top dose was calculated from the reported fits. For part of these data: Where an entry number is given, a second screen of the drug exists; the two often differ.
